Data reported in article PMC12820563, “FoxP3 forms a head-to-head dimer in vivo and stabilizes its multimerization on adjacent microsatellites”.
Some of the results follow.

What follows are sequences tested against T1, MBP-FoxP1dN (Mus musculus, UniProt P58462 326-579) (assay: PD-seq (MBP pull-down with sequencing); 20 mM Tris-HCl pH 7.5, 100 mM NaCl, 1.5 mM MgCl2, 0.4 uM protein, 0.1 uM dsDNA library, 30 min, room temperature, amylose pull-down; high values mean tight binding). Conditions: protein: recombinant; tags: His6-MBP; chain copies: 2; dsDNA, one strand shown.
T1 sequence: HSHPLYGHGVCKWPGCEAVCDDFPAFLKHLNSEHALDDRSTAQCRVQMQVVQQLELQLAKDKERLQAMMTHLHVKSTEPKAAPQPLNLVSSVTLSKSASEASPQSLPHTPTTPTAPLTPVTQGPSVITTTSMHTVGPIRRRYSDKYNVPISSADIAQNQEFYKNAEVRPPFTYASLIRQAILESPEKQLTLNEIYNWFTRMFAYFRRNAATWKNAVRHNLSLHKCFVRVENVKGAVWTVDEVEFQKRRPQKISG
How it was run: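 E. coli-expressed mouse FoxP3 or FoxP1 fragment, N-terminus removed and tagged with His6-MBP, was used at 0.4 µM against 0.1 µM of a Klenow-filled degenerate double-stranded DNA library. After 30 min at room temperature in Tris pH 7.5 buffer with NaCl and MgCl2, complexes were pulled down on amylose resin and washed three times. Binding is pull-down over input reads-per-million enrichment from pooled replicates of the proteinase K-released, PCR-barcoded, Illumina-sequenced DNA.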

Sequence	binding signal
GATGATTGTTCTCCCAGCTGATGAATTACGCGCCTCGAGTAAACAAATTTTCCTAATCTTTCTGTTCAAGCGCCATCTAC	1.12 RPM ratio (pull-down/input)
GATGATTGTTCTCCCAGCTGATGAATTGAAGGAGTCGAGTAAACAAATTTTCCTAATCTTTCTGTTCAAGCGCCATCTAC	0.783 RPM ratio (pull-down/input)
GATGATTGTTCTCCCAGCTGATGAATTTTGGAGTTCGAGTAAACAAATTTTCCTAATCTTTCTGTTCAAGCGCCATCTAC	0.855 RPM ratio (pull-down/input)
GATGATTGTTCTCCCAGCTGATGAATTATATCGGTCGAGTAAACAAATTTTCCTAATCTTTCTGTTCAAGCGCCATCTAC	0.888 RPM ratio (pull-down/input)
GATGATTGTTCTCCCAGCTGATGAATTACTAAGCTCGAGTAAACAAATTTTCCTAATCTTTCTGTTCAAGCGCCATCTAC	1.05 RPM ratio (pull-down/input)
GATGATTGTTCTCCCAGCTGATGAATTGACGTGATCGAGTAAACAAATTTTCCTAATCTTTCTGTTCAAGCGCCATCTAC	1.08 RPM ratio (pull-down/input)
GATGATTGTTCTCCCAGCTGATGAATTGCCCAATTCGAGTAAACAAATTTTCCTAATCTTTCTGTTCAAGCGCCATCTAC	1.03 RPM ratio (pull-down/input)
GATGATTGTTCTCCCAGCTGATGAATTGGACACCTCGAGTAAACAAATTTTCCTAATCTTTCTGTTCAAGCGCCATCTAC	0.802 RPM ratio (pull-down/input)
GATGATTGTTCTCCCAGCTGATGAATTTTAAAAATCGAGTAAACAAATTTTCCTAATCTTTCTGTTCAAGCGCCATCTAC	1.01 RPM ratio (pull-down/input)
GATGATTGTTCTCCCAGCTGATGAATTGGAGGACTCGAGTAAACAAATTTTCCTAATCTTTCTGTTCAAGCGCCATCTAC	0.757 RPM ratio (pull-down/input)
GATGATTGTTCTCCCAGCTGATGAATTTCCGGGATCGAGTAAACAAATTTTCCTAATCTTTCTGTTCAAGCGCCATCTAC	0.887 RPM ratio (pull-down/input)
GATGATTGTTCTCCCAGCTGATGAATTTACATTTTCGAGTAAACAAATTTTCCTAATCTTTCTGTTCAAGCGCCATCTAC	1.38 RPM ratio (pull-down/input)
GATGATTGTTCTCCCAGCTGATGAATTAGGGCCATCGAGTAAACAAATTTTCCTAATCTTTCTGTTCAAGCGCCATCTAC	0.901 RPM ratio (pull-down/input)
GATGATTGTTCTCCCAGCTGATGAATTAGTCACCTCGAGTAAACAAATTTTCCTAATCTTTCTGTTCAAGCGCCATCTAC	0.877 RPM ratio (pull-down/input)
GATGATTGTTCTCCCAGCTGATGAATTGCCCACATCGAGTAAACAAATTTTCCTAATCTTTCTGTTCAAGCGCCATCTAC	1.07 RPM ratio (pull-down/input)
GATGATTGTTCTCCCAGCTGATGAATTATAGCCATCGAGTAAACAAATTTTCCTAATCTTTCTGTTCAAGCGCCATCTAC	0.989 RPM ratio (pull-down/input)
GATGATTGTTCTCCCAGCTGATGAATTCCCTGACTCGAGTAAACAAATTTTCCTAATCTTTCTGTTCAAGCGCCATCTAC	0.823 RPM ratio (pull-down/input)
GATGATTGTTCTCCCAGCTGATGAATTGGGCTAATCGAGTAAACAAATTTTCCTAATCTTTCTGTTCAAGCGCCATCTAC	0.925 RPM ratio (pull-down/input)
GATGATTGTTCTCCCAGCTGATGAATTTTGCGAGTCGAGTAAACAAATTTTCCTAATCTTTCTGTTCAAGCGCCATCTAC	0.866 RPM ratio (pull-down/input)
GATGATTGTTCTCCCAGCTGATGAATTTACTATGTCGAGTAAACAAATTTTCCTAATCTTTCTGTTCAAGCGCCATCTAC	1.26 RPM ratio (pull-down/input)
GATGATTGTTCTCCCAGCTGATGAATTGTCTATATCGAGTAAACAAATTTTCCTAATCTTTCTGTTCAAGCGCCATCTAC	1.18 RPM ratio (pull-down/input)

Sequence	binding signal
GATGATTGTTCTCCCAGCTGATGAATTGGTATGATCGAGTAAACAAATTTTCCTAATCTTTCTGTTCAAGCGCCATCTAC	1.01 RPM ratio (pull-down/input)
GATGATTGTTCTCCCAGCTGATGAATTACGGGCTTCGAGTAAACAAATTTTCCTAATCTTTCTGTTCAAGCGCCATCTAC	0.885 RPM ratio (pull-down/input)
GATGATTGTTCTCCCAGCTGATGAATTTAGCGCATCGAGTAAACAAATTTTCCTAATCTTTCTGTTCAAGCGCCATCTAC	1.21 RPM ratio (pull-down/input)
GATGATTGTTCTCCCAGCTGATGAATTTCGTAGATCGAGTAAACAAATTTTCCTAATCTTTCTGTTCAAGCGCCATCTAC	0.765 RPM ratio (pull-down/input)
GATGATTGTTCTCCCAGCTGATGAATTGACGGGCTCGAGTAAACAAATTTTCCTAATCTTTCTGTTCAAGCGCCATCTAC	0.882 RPM ratio (pull-down/input)
GATGATTGTTCTCCCAGCTGATGAATTGCGACAGTCGAGTAAACAAATTTTCCTAATCTTTCTGTTCAAGCGCCATCTAC	0.958 RPM ratio (pull-down/input)
GATGATTGTTCTCCCAGCTGATGAATTGCGGGGATCGAGTAAACAAATTTTCCTAATCTTTCTGTTCAAGCGCCATCTAC	0.962 RPM ratio (pull-down/input)
GATGATTGTTCTCCCAGCTGATGAATTTTGTTCTTCGAGTAAACAAATTTTCCTAATCTTTCTGTTCAAGCGCCATCTAC	0.931 RPM ratio (pull-down/input)
GATGATTGTTCTCCCAGCTGATGAATTTATAATCTCGAGTAAACAAATTTTCCTAATCTTTCTGTTCAAGCGCCATCTAC	1.03 RPM ratio (pull-down/input)
GATGATTGTTCTCCCAGCTGATGAATTTGAGGCGTCGAGTAAACAAATTTTCCTAATCTTTCTGTTCAAGCGCCATCTAC	0.89 RPM ratio (pull-down/input)
GATGATTGTTCTCCCAGCTGATGAATTCAGTCATTCGAGTAAACAAATTTTCCTAATCTTTCTGTTCAAGCGCCATCTAC	0.907 RPM ratio (pull-down/input)
GATGATTGTTCTCCCAGCTGATGAATTTTGTACATCGAGTAAACAAATTTTCCTAATCTTTCTGTTCAAGCGCCATCTAC	1.22 RPM ratio (pull-down/input)
GATGATTGTTCTCCCAGCTGATGAATTTTTGGCATCGAGTAAACAAATTTTCCTAATCTTTCTGTTCAAGCGCCATCTAC	1.09 RPM ratio (pull-down/input)
GATGATTGTTCTCCCAGCTGATGAATTCAAGCTCTCGAGTAAACAAATTTTCCTAATCTTTCTGTTCAAGCGCCATCTAC	0.854 RPM ratio (pull-down/input)
GATGATTGTTCTCCCAGCTGATGAATTTCATTGGTCGAGTAAACAAATTTTCCTAATCTTTCTGTTCAAGCGCCATCTAC	0.948 RPM ratio (pull-down/input)
GATGATTGTTCTCCCAGCTGATGAATTACTATGGTCGAGTAAACAAATTTTCCTAATCTTTCTGTTCAAGCGCCATCTAC	0.956 RPM ratio (pull-down/input)
GATGATTGTTCTCCCAGCTGATGAATTTGCAGACTCGAGTAAACAAATTTTCCTAATCTTTCTGTTCAAGCGCCATCTAC	0.892 RPM ratio (pull-down/input)
GATGATTGTTCTCCCAGCTGATGAATTAGTTGGATCGAGTAAACAAATTTTCCTAATCTTTCTGTTCAAGCGCCATCTAC	0.875 RPM ratio (pull-down/input)
GATGATTGTTCTCCCAGCTGATGAATTACATTAGTCGAGTAAACAAATTTTCCTAATCTTTCTGTTCAAGCGCCATCTAC	1.25 RPM ratio (pull-down/input)
GATGATTGTTCTCCCAGCTGATGAATTGAGGAATTCGAGTAAACAAATTTTCCTAATCTTTCTGTTCAAGCGCCATCTAC	0.824 RPM ratio (pull-down/input)
GATGATTGTTCTCCCAGCTGATGAATTCACGCTGTCGAGTAAACAAATTTTCCTAATCTTTCTGTTCAAGCGCCATCTAC	0.895 RPM ratio (pull-down/input)

Sequence	binding signal
GATGATTGTTCTCCCAGCTGATGAATTACACGCATCGAGTAAACAAATTTTCCTAATCTTTCTGTTCAAGCGCCATCTAC	1.3 RPM ratio (pull-down/input)
GATGATTGTTCTCCCAGCTGATGAATTGATTAGATCGAGTAAACAAATTTTCCTAATCTTTCTGTTCAAGCGCCATCTAC	1.06 RPM ratio (pull-down/input)
GATGATTGTTCTCCCAGCTGATGAATTGCGCACTTCGAGTAAACAAATTTTCCTAATCTTTCTGTTCAAGCGCCATCTAC	1.16 RPM ratio (pull-down/input)
GATGATTGTTCTCCCAGCTGATGAATTACAAGCCTCGAGTAAACAAATTTTCCTAATCTTTCTGTTCAAGCGCCATCTAC	1.17 RPM ratio (pull-down/input)
GATGATTGTTCTCCCAGCTGATGAATTTCGATAGTCGAGTAAACAAATTTTCCTAATCTTTCTGTTCAAGCGCCATCTAC	0.833 RPM ratio (pull-down/input)
GATGATTGTTCTCCCAGCTGATGAATTAAGCAGATCGAGTAAACAAATTTTCCTAATCTTTCTGTTCAAGCGCCATCTAC	0.994 RPM ratio (pull-down/input)
GATGATTGTTCTCCCAGCTGATGAATTAATAAGCTCGAGTAAACAAATTTTCCTAATCTTTCTGTTCAAGCGCCATCTAC	1.03 RPM ratio (pull-down/input)
GATGATTGTTCTCCCAGCTGATGAATTTAGGTGCTCGAGTAAACAAATTTTCCTAATCTTTCTGTTCAAGCGCCATCTAC	0.878 RPM ratio (pull-down/input)
GATGATTGTTCTCCCAGCTGATGAATTCATCCGCTCGAGTAAACAAATTTTCCTAATCTTTCTGTTCAAGCGCCATCTAC	0.781 RPM ratio (pull-down/input)
GATGATTGTTCTCCCAGCTGATGAATTTGCATCGTCGAGTAAACAAATTTTCCTAATCTTTCTGTTCAAGCGCCATCTAC	1.28 RPM ratio (pull-down/input)
GATGATTGTTCTCCCAGCTGATGAATTTTAAACTTCGAGTAAACAAATTTTCCTAATCTTTCTGTTCAAGCGCCATCTAC	0.891 RPM ratio (pull-down/input)
GATGATTGTTCTCCCAGCTGATGAATTACGAATATCGAGTAAACAAATTTTCCTAATCTTTCTGTTCAAGCGCCATCTAC	1.17 RPM ratio (pull-down/input)
GATGATTGTTCTCCCAGCTGATGAATTCTCTGCGTCGAGTAAACAAATTTTCCTAATCTTTCTGTTCAAGCGCCATCTAC	0.919 RPM ratio (pull-down/input)
GATGATTGTTCTCCCAGCTGATGAATTTCTCTCTTCGAGTAAACAAATTTTCCTAATCTTTCTGTTCAAGCGCCATCTAC	0.876 RPM ratio (pull-down/input)
GATGATTGTTCTCCCAGCTGATGAATTTGGCTTTTCGAGTAAACAAATTTTCCTAATCTTTCTGTTCAAGCGCCATCTAC	0.955 RPM ratio (pull-down/input)
GATGATTGTTCTCCCAGCTGATGAATTACCACGCTCGAGTAAACAAATTTTCCTAATCTTTCTGTTCAAGCGCCATCTAC	1.04 RPM ratio (pull-down/input)
GATGATTGTTCTCCCAGCTGATGAATTTCTCATCTCGAGTAAACAAATTTTCCTAATCTTTCTGTTCAAGCGCCATCTAC	0.872 RPM ratio (pull-down/input)
GATGATTGTTCTCCCAGCTGATGAATTCCGCGTATCGAGTAAACAAATTTTCCTAATCTTTCTGTTCAAGCGCCATCTAC	0.845 RPM ratio (pull-down/input)
GATGATTGTTCTCCCAGCTGATGAATTGCTGCGATCGAGTAAACAAATTTTCCTAATCTTTCTGTTCAAGCGCCATCTAC	1.03 RPM ratio (pull-down/input)
GATGATTGTTCTCCCAGCTGATGAATTGCTTTTTTCGAGTAAACAAATTTTCCTAATCTTTCTGTTCAAGCGCCATCTAC	1.45 RPM ratio (pull-down/input)
GATGATTGTTCTCCCAGCTGATGAATTCAGAGTGTCGAGTAAACAAATTTTCCTAATCTTTCTGTTCAAGCGCCATCTAC	0.854 RPM ratio (pull-down/input)
